{"source": "PubChem BioAssay AID588855", "about": "(National Center for Advancing Translational Sciences (NCATS), 2011)", "note": "Values joined by “and” are separate entries in the source; they are usually repeats but may differ in a detail not shown here. Equal values may be shown once. Screen size: about 410,000 compounds; about 5,000 (1.2%) were called active. This list was built around the results that the source calls inconclusive (neither active nor inactive); the mix of calls is not that of the screen. The call rests on the fitted dose curve; in most records, active means well fitted inhibition curve with a large enough effect; inconclusive means small, poorly fitted or top-dose-only effect; inactive means no such curve, though single readings can be large or run the other way. Potencies beside an inconclusive call are fits to weak or partial responses and may not hold up. Potency means the concentration at half of the fitted maximal effect; tags describe the fitted curve by direction and shape.", "data": [{"test": "qHTS for Inhibitors of TGF-b; further: nearly all actives have a fitted effect of over 65% in size", "conditions": "HepG2 CAGA-GFP TGF-b/SMAD3 reporter, GFP fluorescence, 18 h, TGF-beta stimulated, 500 pg/mL final; series mostly up to 46.1 µM", "how_it_was_run": "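Inhibition of TGF-beta-driven CAGA-GFP reporter expression in HEPG2 cells is measured by cellular GFP fluorescence after 18 h stimulation with 500 pg/mL recombinant TGF-beta in 1% FBS medium at 37 degrees C.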", "values": [{"smiles": "Cc1ccc(SCc2cc(=O)[nH]c(Nc3nc(C)c4ccc(C)cc4n3)n2)cc1", "Potency": "inconclusive: 3.55 µM [inhibitor, single point]"}, {"smiles": "O=C(CCN1CCCC1)c1cccs1", "Potency": "inconclusive: 10 µM [inhibitor, partial curve]"}, {"smiles": "C=CCn1c(SCC(=O)c2cc(C)n(C(C)COC)c2C)nc2sc(C)c(C)c2c1=O", "note": "(centres undefined)", "Potency": "inconclusive: 12.6 µM [inhibitor, single point]"}, {"smiles": "Cc1cc(C)n(C(C)CC(=O)Nc2ccc(Cl)cc2C)n1", "note": "(centres undefined)", "Potency": "inactive"}, {"smiles": "CNc1nc(-c2cccc(C(=O)N(C)C)c2)cn2ccnc12", "Potency": "inactive"}, {"smiles": "CNc1cccnc1C=NNC(N)=S", "Potency": "inconclusive: 8.91 µM [inhibitor, partial curve, poor fit]"}, {"smiles": "COc1cccc(-c2cnc(C(O)c3ccc(C)cc3C)[nH]2)c1", "note": "(centres undefined)", "Potency": "inactive"}, {"smiles": "CCOc1ccc(-n2c(SCC(=O)NCc3ccccc3)nc3n[nH]c(C)c3c2=N)cc1", "Potency": "inconclusive: 0.112 µM [inhibitor, full curve, poor fit]"}, {"smiles": "COc1ccc(NC(=O)COC(=O)c2cc3c(s2)CCC3)cc1", "Potency": "inactive"}, {"smiles": "N#CCCCN1C(=O)C(=C(C#N)C#N)c2ccccc21", "Potency": "inconclusive: 20 µM [inhibitor, single point]"}, {"smiles": "COc1ccccc1/C=C/C=N/n1c(-c2n[nH]c3c2CCC3)n[nH]c1=S", "Potency": "inconclusive: 12.6 µM [inhibitor, single point]"}, {"smiles": "O=S(=O)(NCC(c1cccs1)S(=O)(=O)c1ccccc1)c1ccccc1", "note": "(centres undefined)", "Potency": "active: 7.08 µM"}, {"smiles": "Cc1ccc(-n2c(=O)c3ccc(C(=O)NCc4ccco4)cc3n(CC(=O)Nc3ccc(C)c(F)c3)c2=O)cc1", "Potency": "inactive"}, {"smiles": "CCN(CC)c1ccc(/C=C/c2sc3ccccc3[n+]2CCCCI)cc1", "Potency": "active: 12.6 µM"}, {"smiles": "O=c1cc(CN2CCCCC2)c2c(ccc3ccccc32)o1", "Potency": "inconclusive: 6.31 µM [inhibitor, single point]"}, {"smiles": "CCCCNC(=O)c1onc(CSc2ccc(F)c(F)c2)c1C(=O)NCCCC", "Potency": "inconclusive: 35.5 µM [inhibitor, single point]"}, {"smiles": "CCCOc1c(OC)cccc1C1CC(=O)Nc2cc3c(cc21)OCCO3", "note": "(centres undefined)", "Potency": "inconclusive: 15.8 µM [inhibitor, single point]"}, {"smiles": "CCO[C@H]1OC(C(=O)NCc2nc3ccccc3[nH]2)=C[C@@H](c2ccc(C(F)(F)F)cc2)[C@@H]1CCCO", "Potency": "inconclusive: 3.16 µM [inhibitor, partial curve, poor fit]"}, {"smiles": "Cc1ccc2nc(-c3cccnc3)c(NC3CCCCC3)n2c1", "Potency": "inactive"}, {"smiles": "Cc1ccccc1-c1nnc(CN2CCC(C)CC2)o1", "Potency": "inactive"}, {"smiles": "Cc1ccc(Nc2nc(N)c([N+](=O)[O-])c(NCc3ccco3)n2)cc1", "Potency": "inconclusive: 25.1 µM [inhibitor, single point]"}, {"smiles": "Cc1cc(C)c(OCC(=O)N/N=C/c2ccc3c(c2)OCO3)c(C)c1", "Potency": "inconclusive: 35.5 µM [inhibitor, single point]"}, {"smiles": "O=C(Nc1cccc(Cl)c1)N1CC2CCCN2c2ccccc21", "note": "(centres undefined)", "Potency": "inactive"}, {"smiles": "COc1ccccc1CC(=O)Nc1ccc2nc(Nc3cccc(C(F)(F)F)c3)cc(C)c2c1", "Potency": "inactive"}, {"smiles": "Cn1c(C(=O)N2CCN(C(=O)c3ccco3)CC2)cc2c(=O)n(C)c3ccccc3c21", "Potency": "inactive"}, {"smiles": "COc1ccc(NC(=S)N2CCC(C(O)(c3ccccc3)c3ccccc3)CC2)cc1", "Potency": "inconclusive: 35.5 µM [inhibitor, single point]"}, {"smiles": "CCOC(=O)C(C(=O)OCC)[C@@H]1CS(=O)(=O)C[C@H]1C(C(=O)OCC)C(=O)OCC", "Potency": "inactive"}, {"smiles": "C[C@@H](CSc1ccccc1)CN1CC[C@H](C(C)(C)C)CCC1=O", "Potency": "inconclusive: 35.5 µM [inhibitor, single point] and inconclusive: 11.2 µM [inhibitor, partial curve, poor fit]"}, {"smiles": "COc1ccccc1NC(C#N)c1ccccc1OCc1ccccc1", "note": "(centres undefined)", "Potency": "inconclusive: 35.5 µM [inhibitor, single point]"}, {"smiles": "CC(=O)c1ccc(-c2c(C3C4C=CCCC4(C)C(=O)N3Cc3ccccc3)ccc3ccccc23)cc1", "note": "(centres undefined)", "Potency": "inconclusive: 20 µM [inhibitor, single point]"}, {"smiles": "CCOc1ccc(S(=O)(=O)N2CCOCC2)cc1NC(=O)CSCc1ccc(C)cc1", "Potency": "inactive"}, {"smiles": "C(=C/c1nccc2c1[nH]c1ccccc12)/c1ccc2c(c1)OCO2", "Potency": "inconclusive: 25.1 µM [inhibitor, single point] and inconclusive: 12.6 µM [inhibitor, partial curve, poor fit]"}, {"smiles": "CC(C)c1ccc(NC(=O)C2CSC3(C)CCC(=O)N23)cc1", "note": "(centres undefined)", "Potency": "inactive"}, {"smiles": "Cc1ccc(-n2nc3c(=O)n(CCCC(=O)NCc4cccc(F)c4)nc(C)c3c2C)cc1", "Potency": "inactive"}, {"smiles": "O=C(NCCNC(=O)c1cc(OCC(F)(F)F)ccc1OCC(F)(F)F)Nc1cccc(C(F)(F)F)c1", "Potency": "inconclusive: 35.5 µM [inhibitor, single point]"}, {"smiles": "O=C(CSc1nc2ccccc2c(=O)[nH]1)N1CCN(S(=O)(=O)c2ccccc2)CC1", "Potency": "inactive"}, {"smiles": "O=C(c1ccc(COc2ccc3ccccc3c2)o1)N1N=C(C(F)F)CC1(O)C(F)F", "note": "(centres undefined)", "Potency": "active: 11.2 µM"}, {"smiles": "Ic1ccc(Nc2nc(NCCN3CCOCC3)nc(N3CCCC3)n2)cc1", "Potency": "inconclusive: 35.5 µM [inhibitor, single point]"}, {"smiles": "Cc1ccc(S(=O)(=O)N2CCC(=O)N(C(COCc3ccc(Cl)cc3)C(C)C)CC2)cc1", "note": "(centres undefined)", "Potency": "inconclusive: 14.1 µM [inhibitor, single point]"}, {"smiles": "CCCCCCCCCCCCCCCC[n+]1ccc(/C=C/c2c(C)[nH]c3ccccc23)cc1", "Potency": "inconclusive: 35.5 µM [inhibitor, single point]"}, {"smiles": "O=C(Nc1nc2n(n1)C(c1ccc(F)cc1)C=C(c1ccc(Cl)cc1)N2)c1ccc([N+](=O)[O-])cc1", "note": "(centres undefined)", "Potency": "inactive"}, {"smiles": "CN(C)CCNC(C(=O)Nc1cc(Cl)cc(Cl)c1)c1ccccc1", "note": "(centres undefined)", "Potency": "inconclusive: 0.891 µM [inhibitor, full curve]"}, {"smiles": "Cc1c(NC(=O)Nc2ccc(Cl)c(Cl)c2)sc2nc3n(c(=O)c12)CCC(C)CC3", "note": "(centres undefined)", "Potency": "inconclusive: 22.4 µM [inhibitor, single point]"}, {"smiles": "Cn1nc(C(C)(C)C)cc1C(=O)NCc1cc(F)cc2c1OCOC2", "Potency": "inconclusive: 5.01 µM [inhibitor, partial curve, poor fit]"}, {"smiles": "COc1ccc(NC(=O)c2cc3ccccc3oc2=O)cc1", "Potency": "inactive"}, {"smiles": "c1cnc2ccc(-c3ccc4ncccc4c3)cc2c1", "Potency": "inactive"}, {"smiles": "N#CC1=C(N)Oc2c(ccc3ccccc23)C1c1ccsc1", "note": "(centres undefined)", "Potency": "inconclusive: 11.2 µM [inhibitor, single point]"}, {"smiles": "O=C(Nc1nc2ccc(F)cc2s1)C1CC(=O)N(c2ccc3c(c2)OCCO3)C1", "note": "(centres undefined)", "Potency": "inconclusive: 35.5 µM [inhibitor, single point]"}, {"smiles": "Cc1ccccc1OCCC(=O)Nc1cccc(S(=O)(=O)Nc2ccccc2Cl)c1", "Potency": "inconclusive: 14.1 µM [inhibitor, single point]"}, {"smiles": "Fc1cccc(NC(=S)Nc2cccnc2)c1", "Potency": "inactive"}, {"smiles": "CCOC(=O)C1=C[C@@H](CC)N(S(=O)(=O)c2ccc(C)cc2)[C@H]1c1ccccc1", "Potency": "inconclusive: 22.4 µM [inhibitor, single point]"}, {"smiles": "CCC1CCCCN1C(=O)c1c[nH]c2ccc(S(=O)(=O)Nc3cccc(OC)c3)cc2c1=O", "note": "(centres undefined)", "Potency": "inactive"}, {"smiles": "O=C(NCc1ccco1)c1ccc2c(c1)N(Cc1ccccc1)C(=O)c1ccccc1S2", "Potency": "inconclusive: 6.31 µM [inhibitor, partial curve, poor fit]"}, {"smiles": "COc1cccc(-c2cc3nc4c(c(N5CCC6(CC5)OCCO6)n3n2)CCCC4)c1", "Potency": "active: 12.6 µM"}, {"smiles": "O=C(NC1CCCCC1)c1ccc(CSc2nc3cccnc3n2Cc2cccc(F)c2)cc1", "Potency": "inconclusive: 3.98 µM [inhibitor, full curve, poor fit]"}, {"smiles": "Cc1nc2ccccc2nc1/C=C/c1ccc(N(C)C)cc1", "Potency": "inactive"}, {"smiles": "CC(C)(C)C1CCc2c(sc3nc(SCC(N)=O)nc(N)c23)C1", "note": "(centres undefined)", "Potency": "inconclusive: 22.4 µM [inhibitor, single point]"}, {"smiles": "CCOc1ccc(C2NC(=O)c3n[nH]c(C)c32)cc1", "note": "(centres undefined)", "Potency": "inactive"}, {"smiles": "O=C(Nc1ccc(F)cc1)Nc1ccc2c(c1)OCO2", "Potency": "inactive"}, {"smiles": "COc1ccc(NC(=O)c2ccccc2Oc2ccccc2)c(OC)c1", "Potency": "inconclusive: 35.5 µM [inhibitor, single point]"}, {"smiles": "COC(=O)c1scc(-c2ccc(C)cc2)c1S(=O)(=O)N1CCN(c2ccc(F)cc2)CC1", "Potency": "inconclusive: 0.355 µM [inhibitor, full curve, poor fit]"}, {"smiles": "CCOc1ccc(Nc2cc(C)nc3nc(Cc4ccc(Cl)cc4)nn23)cc1", "Potency": "inconclusive: 4.47 µM [inhibitor, full curve, poor fit]"}, {"smiles": "Cc1cccc(-c2nc(CS(=O)CC(=O)NC(C)CCc3ccccc3)c(C)o2)c1", "note": "(centres undefined)", "Potency": "inconclusive: 35.5 µM [inhibitor, single point]"}, {"smiles": "CC1=NNC(=O)C1CC(=O)N/N=C/C(Br)=C/c1ccccc1", "note": "(centres undefined)", "Potency": "inconclusive: 3.55 µM [inhibitor, single point]"}, {"smiles": "Cc1ccc(-n2nc3c(N4CCC(C(=O)NC(C)c5ccccc5)CC4)nnc(C)c3c2C)cc1", "note": "(centres undefined)", "Potency": "active: 8.91 µM"}, {"smiles": "CS(=O)(=O)N1CCC(C(=O)NCc2ccco2)CC1", "Potency": "inconclusive: 20 µM [inhibitor, single point]"}, {"smiles": "CC(=O)Oc1ccc(-c2csc(Nc3ccc(Cl)cn3)n2)cc1", "Potency": "inconclusive: 12.6 µM [inhibitor, partial curve, poor fit]"}, {"smiles": "NS(=O)(=O)c1ccc(-n2cccc2C=O)cc1", "Potency": "inactive"}, {"smiles": "O=C1CCCc2cc(S(=O)(=O)NCC3CCC(C(=O)NCc4ccccc4Cl)CC3)ccc2N1", "note": "(centres undefined)", "Potency": "inactive"}]}]}
